Screen size: about 390,000 compounds; about 910 (0.23%) were called active. Inconclusive results (about 5%) are left out. Calls come from the whole dose curve; as a rule, active = well fitted inhibition curve with a large enough effect; inconclusive = small, poorly fitted or top-dose-only effect; inactive = no such curve, though single readings can be large or run the other way. The list shows a part of the results, in another mix than the full data.
% is set by controls: 0 for no effect and ±100 for the full control effect; potency is the fitted concentration of half-maximal effect.

The experiment concerns the target Ubiquitin carboxyl-terminal hydrolase 1 (Homo sapiens) (UniProt O94782). The experiment can be described thus: Inhibitors of USP1/UAF1: Primary Screen. Note: nearly all actives have a fitted effect of over 60% in size. To be noted: recombinant USP1/UAF1, Ub-Rhodamine cleavage fluorescence; activity change, negative = inhibition: at 57.1 µM (top of the series). In a few lines: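 In this screen, compounds sit with the deubiquitinase complex (1nM) for 15 min at room temperature before Ub-Rho is added at 150nM final. Fluorescence rise is then followed for 6 reads every 60 seconds.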
Chain of UniProt O94782 (O94782 whole entry, looked up): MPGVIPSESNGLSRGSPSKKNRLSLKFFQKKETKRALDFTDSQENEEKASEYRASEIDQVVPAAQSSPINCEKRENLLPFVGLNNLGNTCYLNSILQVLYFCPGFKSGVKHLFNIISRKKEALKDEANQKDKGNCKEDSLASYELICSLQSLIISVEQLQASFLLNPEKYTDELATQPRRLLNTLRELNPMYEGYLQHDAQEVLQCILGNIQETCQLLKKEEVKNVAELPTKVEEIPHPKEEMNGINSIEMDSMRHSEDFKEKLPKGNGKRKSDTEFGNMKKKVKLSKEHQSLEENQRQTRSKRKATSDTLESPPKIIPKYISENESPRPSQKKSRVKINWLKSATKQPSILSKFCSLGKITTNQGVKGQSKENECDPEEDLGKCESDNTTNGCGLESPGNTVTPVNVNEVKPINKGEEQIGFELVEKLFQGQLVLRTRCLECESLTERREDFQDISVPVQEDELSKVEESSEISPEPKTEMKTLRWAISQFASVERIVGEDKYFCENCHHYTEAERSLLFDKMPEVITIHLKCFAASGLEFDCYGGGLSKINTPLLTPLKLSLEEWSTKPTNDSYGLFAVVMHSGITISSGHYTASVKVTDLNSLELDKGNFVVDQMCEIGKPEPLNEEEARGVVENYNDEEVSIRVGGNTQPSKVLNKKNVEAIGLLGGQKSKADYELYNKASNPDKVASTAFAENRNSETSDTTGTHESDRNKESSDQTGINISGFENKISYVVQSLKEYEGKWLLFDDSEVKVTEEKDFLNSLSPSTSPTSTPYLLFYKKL
For `C[C@H](CO)N1C[C@H](C)[C@H](CN(C)S(=O)(=O)c2ccc(Cl)cc2)OCc2cnnn2CCCC1=O`, the “activity change, negative = inhibition” value was inactive: 0.554%.
For `CCSC1=NSC2=NC(=O)/C(=C\c3coc4ccccc4c3=O)C(=N)N12`, the Potency was active: 22.4 µM.
With `COc1ccc(OC)c2c1C(=O)c1ccccc1C2=O`, the Potency is active: 31.6 µM.
Same read-out and setting: for `COC1=C(N)C(=O)c2nc(-c3nc(C(=O)O)c(C)c(-c4ccc(OC)c(OC)c4O)c3N)ccc2C1=O` the value was active: 11.2 µM.
As to `C[C@@H]1NC(=O)[C@@]2(C)[C@@H](c3ccccc3)[C@H]3COc4ccccc4[C@@H]3N2C1=O`, the “activity change, negative = inhibition” value is inactive: -27.9%.
Turning to `Cc1nnc(NC(=O)NC(C)N2C(=O)C3C4C=CC(C4)C3C2=O)s1` (stereo unspecified), the “activity change, negative = inhibition” value was inactive: 8.06%.
As to `CCCCCCSc1ccc([C@@H]2[C@@H]3C(=O)N(C)C(=O)[C@@H]3[C@]3(C(=O)OC)CCCCN23)cc1`, the “activity change, negative = inhibition” value is inactive: -28.3%.
With `COc1ccc(-n2c(=O)[nH]c3cc(C(=O)NCCc4ccc(Cl)cc4)ccc3c2=O)cc1OC`, the “activity change, negative = inhibition” value was inactive: 1.44%.
With `Nc1c(C(=O)Nc2nccs2)sc2nc(-c3cccs3)cc(C(F)(F)F)c12`, the “activity change, negative = inhibition” value is inactive: 28.5%.
Take `CCN1CCN(c2cc(C)c3cc(NC(=O)c4cc(OC)cc(OC)c4)ccc3n2)CC1`: the “activity change, negative = inhibition” value is inactive: 1.11%.
Regarding `CCOC(=O)c1ccc(Nc2cc3ccccc3c(=O)[nH]2)cc1`, the Potency was active: 17.8 µM.
Turning to `CC1CCC(C(C)C)C(OC(=O)C[n+]2cc(-c3ccc(Cl)cc3)n3c2CCCCC3)C1` (stereo unspecified), the “activity change, negative = inhibition” value is inactive: -26%.
As for `Cn1nc(C(=O)N2CCN(c3cccc(Cl)c3)CC2)c2c1-c1ccccc1S(=O)(=O)C2`, the “activity change, negative = inhibition” value is inactive: -22.2%.
The same measure, in the same setting: then `CCOC(=O)/C=c1\s/c(=C\c2ccc3cc(OC)ccc3c2)c(=O)n1CC(=O)NCc1ccc2c(c1)OCO2`, with inactive: 2.53%; and `Cn1c(=O)c(N)c2c3c(c(Br)ccc31)C(=O)c1ccccc1-2`, with inactive: 244%; and `C[C@H](CO)N1C[C@H](C)[C@@H](CN(C)Cc2cccc3c2OCCCO3)OCc2cnnn2CCCC1=O`, with inactive: -1.78%.
As to `Cc1ccc(C)c(N2CCN(C(=O)CCCn3ncn4c(cc5occc54)c3=O)CC2)c1`, the “activity change, negative = inhibition” value was inactive: -14.1%.
Take `Fc1cccc(F)c1-c1nc(-c2ccncc2)no1`: the “activity change, negative = inhibition” value is inactive: -6.31%.
Still for that read-out and setting: then `C[C@@H]1CN([C@H](C)CO)C(=O)CCCn2nncc2CO[C@H]1CN(C)S(=O)(=O)c1ccc(Cl)cc1`, with inactive: -14.5%.
Regarding `COc1ccc(CN(C(=O)c2cc(=O)c3ccccc3o2)C2CCS(=O)(=O)C2)cc1OC` (stereo unspecified), the “activity change, negative = inhibition” value was inactive: -16.6%.
In the case of `COc1cc(NC(=O)c2cnc(N)o2)cc(C(=O)Nc2cccc(C(F)(F)F)c2)c1`, the “activity change, negative = inhibition” value is inactive: -28.4%.
Regarding `Cc1ncc(CO)c2c1Oc1nc(-c3ccccc3)nc(SCC(=O)N3CCCCC3)c1C2`, the “activity change, negative = inhibition” value is inactive: -13.7%.
Turning to `COc1ccc(C)cc1NC(=O)CN1C(=O)COc2ccc(S(=O)(=O)N3CCOCC3)cc21`, the “activity change, negative = inhibition” value was inactive: -25.9%.
Turning to `CC(C)(C)OC(=O)C[C@H]1C/C=C\C[C@@H](CC(=O)N[C@H](CO)Cc2ccccc2)C(=O)N2CCC[C@H]2COC1=O`, the “activity change, negative = inhibition” value was inactive: -12.2%.
Turning to `C[C@H](NC(=O)c1nc[nH]c1C(=O)N[C@@H](Cc1ccccc1)C(=O)OCc1ccccc1)c1ccccc1`, the “activity change, negative = inhibition” value is inactive: -16.8%.
As for `O=C(NCc1ccco1)/C(=C/C=C/c1ccccc1)NC(=O)c1ccco1`, the “activity change, negative = inhibition” value is inactive: -16.8%.
Take `Cc1nn(C(C)C(=O)NCc2ccco2)c(=O)c2nn(-c3ccccc3)c(C)c12` (stereo unspecified): the “activity change, negative = inhibition” value is inactive: -8.27%.
`O=C(NCc1ccccc1Cl)c1ccc2c(c1)NC(=O)C(CS(=O)(=O)Cc1ccc(Cl)cc1)N2` (stereo unspecified): the “activity change, negative = inhibition” value was inactive: 61.2%.
In the case of `COC(C[C@H]1O[C@H]1[C@H](O)COCc1ccccc1)OC`, the “activity change, negative = inhibition” value is inactive: -27.2%.
Regarding `CCOC(=O)N(C)C[C@@H]1OCc2cnnn2CCCC(=O)N([C@H](C)CO)C[C@@H]1C`, the “activity change, negative = inhibition” value was inactive: -16.9%.
Consider `COc1cc(/C=C2\Oc3cc(O)ccc3C2=O)ccc1O`, for which the Potency is active: 28.2 µM.
Take `C[C@H]1CN([C@@H](C)CO)S(=O)(=O)c2ccc(Br)cc2O[C@@H]1CN(C)Cc1ccccc1`: the “activity change, negative = inhibition” value was inactive: -33.7%.
Take `COc1ccc(S(=O)(=O)N(C)C[C@H]2OCc3cnnn3CCCC(=O)N([C@H](C)CO)C[C@@H]2C)cc1`: the “activity change, negative = inhibition” value is inactive: -3.93%.
Take `COc1ccccc1N1CCN(C(=O)c2cc3c(s2)-c2ccccc2OC3)CC1`: the “activity change, negative = inhibition” value was inactive: 0.56%.
Consider `C[C@H](CO)N1C[C@H](C)[C@@H](CN(C)S(=O)(=O)c2ccc(F)cc2)Oc2ccc(NC(=O)Nc3ccc4c(c3)OCO4)cc2C1=O`, for which the “activity change, negative = inhibition” value is inactive: -9%.
For `C=CC[C@H](CC(=O)N(CCO)Cc1ccccc1)C(=O)N[C@H](COC(=O)[C@@H](CC=C)CC(=O)OC(C)(C)C)Cc1ccccc1`, the “activity change, negative = inhibition” value was inactive: -17.1%.
On the same count and under the same terms, for `Nc1ccn([C@@H]2O[C@H](CO)[C@@H](O)[C@@H]2O)c(=O)n1` the value was inactive: -21.9%.
Regarding `CCSC(=O)N=Nc1ccc(O)cc1`, the Potency was active: 31.6 µM.
As for `COc1ccc(C(CNC(=O)COc2ccc(C)c(C)c2)N2CCCCC2)cc1` (stereo unspecified), the “activity change, negative = inhibition” value is inactive: -11.3%.
Turning to `Cc1ccc(NC(=O)CN2C(=O)CCSc3ccc(S(=O)(=O)N4CCCC4)cc32)cc1`, the “activity change, negative = inhibition” value is inactive: -15.9%.
Consider `C[C@@H]1CN([C@H](C)CO)C(=O)CCCn2nncc2CO[C@H]1CN(C)S(=O)(=O)c1ccc(-n2cccn2)cc1`, for which the “activity change, negative = inhibition” value is inactive: -20%.
Regarding `O=C1NC(=O)C(c2ccccc2)(c2ccccc2)N1`, the “activity change, negative = inhibition” value is inactive: -15.6%.
The same measure, in the same setting: then `O=C(O)C(=O)/C(=C\c1ccc(Cl)cc1)c1ccc2ccccc2n1`, with inactive: 28.1%; and `COc1ccc(CN2CCN(S(=O)(=O)c3ccccc3)CC2)c(OC)c1`, with inactive: -15.1%.
As for `N#Cc1sc2nc(-c3ccccc3)cc(-c3ccco3)c2c1N`, the Potency was active: 3.98 µM.
On to `COc1cccc(NC(=O)C2CCCN2S(=O)(=O)c2ccc3c(c2)n(C)c(=O)c(=O)n3C)c1` (stereo unspecified), for which the “activity change, negative = inhibition” value is inactive: -6.23%.
Take `CCOC(=O)c1c(NC(=O)c2ccco2)n(C2CCCCC2)c2nc3ccccc3nc12`: the Potency is active: 15.8 µM.
As for `C[C@H](NC(=O)c1ncn2c1C(=O)NC[C@@H]2C)C(=O)OC(C)(C)C`, the “activity change, negative = inhibition” value is inactive: -13.2%.
As to `OCC[C@@H]1C[C@@H](O)[C@H](O)[C@@]2(OCc3ccccc32)O1`, the “activity change, negative = inhibition” value is inactive: 7.75%.
Same read-out and setting: then `COC(C[C@@H](O)C[C@@H](O)COCc1ccccc1)OC`, with inactive: -21.2%.
As to `COc1ccc2c(c1)S/C(=C\C(=O)c1ccncc1)N2C`, the “activity change, negative = inhibition” value is inactive: 102%.
Consider `Cc1ccc(NC(=O)COc2ccc(/C(N)=N/O)cc2)cc1C`, for which the “activity change, negative = inhibition” value was inactive: -7.95%.
For `Cc1ccc(NC(=O)CSc2nnc(NC(=O)NC3CCCCC3)s2)cc1`, the “activity change, negative = inhibition” value is inactive: -26.5%.
In the case of `C[C@H]1CCC[C@]2(O[C@H](CCO)C[C@@H](O)[C@@H]2O)O1`, the “activity change, negative = inhibition” value is inactive: -19%.
In the case of `C[C@@H]1CN([C@H](C)CO)C(=O)CCCn2nncc2CO[C@@H]1CN(C)C(=O)c1cc(-c2ccccc2)on1`, the “activity change, negative = inhibition” value was inactive: 5.59%.
On the same count and under the same terms, for `CCCSc1ccc([C@@H]2[C@@H]3C(=O)N(CC)C(=O)[C@@H]3[C@]3(C(=O)OC)CCCCN23)cc1` the value was inactive: 8.89%.

Values taken from PubChem BioAssay AID743255 (National Center for Advancing Translational Sciences (NCATS), 2014).
